Paper PMC11904782
Results are given in words; binding and its absence hold for the method and conditions named. For part of these data: Binding seen in cells or lysates may run through a third protein. Some results given as binding are weak or reduced against the parent protein; the word gives no strength.

Amino acid sequences for entries named in this document (tags omitted). A change or cut given only in a name is not applied to a line headed by its entry. Chains listed by the source or under a name are the forms on record and can include a tag or linker. Residues count along the entry.
GST–ARID1A–ARID domain (981–1140 aa) (O14497, residues 981-1140): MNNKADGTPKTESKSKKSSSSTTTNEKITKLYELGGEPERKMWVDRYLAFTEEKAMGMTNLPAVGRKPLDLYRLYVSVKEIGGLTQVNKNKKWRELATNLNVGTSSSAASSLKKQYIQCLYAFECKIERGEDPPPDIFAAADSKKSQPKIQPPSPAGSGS
GST–ARID1A–C-terminal region (1634–1913 aa) (O14497, residues 1634-1913): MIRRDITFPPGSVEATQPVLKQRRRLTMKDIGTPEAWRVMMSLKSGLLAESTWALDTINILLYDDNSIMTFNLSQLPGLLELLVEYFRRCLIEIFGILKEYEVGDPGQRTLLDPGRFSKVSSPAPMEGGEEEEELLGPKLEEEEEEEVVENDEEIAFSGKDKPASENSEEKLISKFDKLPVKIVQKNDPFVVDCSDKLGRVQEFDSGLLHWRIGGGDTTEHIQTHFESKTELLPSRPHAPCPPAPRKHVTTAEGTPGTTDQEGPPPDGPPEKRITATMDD
His–ARID1A–ARM domain (1914–2285 aa) (O14497, residues 1914-2285): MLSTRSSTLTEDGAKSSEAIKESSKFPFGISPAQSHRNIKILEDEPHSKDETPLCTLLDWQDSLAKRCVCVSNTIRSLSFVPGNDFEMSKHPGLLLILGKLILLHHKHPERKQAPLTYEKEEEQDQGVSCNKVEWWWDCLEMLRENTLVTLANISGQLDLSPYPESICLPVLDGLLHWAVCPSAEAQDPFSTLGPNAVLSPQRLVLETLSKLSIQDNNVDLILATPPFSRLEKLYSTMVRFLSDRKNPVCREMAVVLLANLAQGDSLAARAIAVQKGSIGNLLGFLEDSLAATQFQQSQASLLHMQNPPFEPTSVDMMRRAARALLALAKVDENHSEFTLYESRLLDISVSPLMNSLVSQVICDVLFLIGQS
UniProt P78527: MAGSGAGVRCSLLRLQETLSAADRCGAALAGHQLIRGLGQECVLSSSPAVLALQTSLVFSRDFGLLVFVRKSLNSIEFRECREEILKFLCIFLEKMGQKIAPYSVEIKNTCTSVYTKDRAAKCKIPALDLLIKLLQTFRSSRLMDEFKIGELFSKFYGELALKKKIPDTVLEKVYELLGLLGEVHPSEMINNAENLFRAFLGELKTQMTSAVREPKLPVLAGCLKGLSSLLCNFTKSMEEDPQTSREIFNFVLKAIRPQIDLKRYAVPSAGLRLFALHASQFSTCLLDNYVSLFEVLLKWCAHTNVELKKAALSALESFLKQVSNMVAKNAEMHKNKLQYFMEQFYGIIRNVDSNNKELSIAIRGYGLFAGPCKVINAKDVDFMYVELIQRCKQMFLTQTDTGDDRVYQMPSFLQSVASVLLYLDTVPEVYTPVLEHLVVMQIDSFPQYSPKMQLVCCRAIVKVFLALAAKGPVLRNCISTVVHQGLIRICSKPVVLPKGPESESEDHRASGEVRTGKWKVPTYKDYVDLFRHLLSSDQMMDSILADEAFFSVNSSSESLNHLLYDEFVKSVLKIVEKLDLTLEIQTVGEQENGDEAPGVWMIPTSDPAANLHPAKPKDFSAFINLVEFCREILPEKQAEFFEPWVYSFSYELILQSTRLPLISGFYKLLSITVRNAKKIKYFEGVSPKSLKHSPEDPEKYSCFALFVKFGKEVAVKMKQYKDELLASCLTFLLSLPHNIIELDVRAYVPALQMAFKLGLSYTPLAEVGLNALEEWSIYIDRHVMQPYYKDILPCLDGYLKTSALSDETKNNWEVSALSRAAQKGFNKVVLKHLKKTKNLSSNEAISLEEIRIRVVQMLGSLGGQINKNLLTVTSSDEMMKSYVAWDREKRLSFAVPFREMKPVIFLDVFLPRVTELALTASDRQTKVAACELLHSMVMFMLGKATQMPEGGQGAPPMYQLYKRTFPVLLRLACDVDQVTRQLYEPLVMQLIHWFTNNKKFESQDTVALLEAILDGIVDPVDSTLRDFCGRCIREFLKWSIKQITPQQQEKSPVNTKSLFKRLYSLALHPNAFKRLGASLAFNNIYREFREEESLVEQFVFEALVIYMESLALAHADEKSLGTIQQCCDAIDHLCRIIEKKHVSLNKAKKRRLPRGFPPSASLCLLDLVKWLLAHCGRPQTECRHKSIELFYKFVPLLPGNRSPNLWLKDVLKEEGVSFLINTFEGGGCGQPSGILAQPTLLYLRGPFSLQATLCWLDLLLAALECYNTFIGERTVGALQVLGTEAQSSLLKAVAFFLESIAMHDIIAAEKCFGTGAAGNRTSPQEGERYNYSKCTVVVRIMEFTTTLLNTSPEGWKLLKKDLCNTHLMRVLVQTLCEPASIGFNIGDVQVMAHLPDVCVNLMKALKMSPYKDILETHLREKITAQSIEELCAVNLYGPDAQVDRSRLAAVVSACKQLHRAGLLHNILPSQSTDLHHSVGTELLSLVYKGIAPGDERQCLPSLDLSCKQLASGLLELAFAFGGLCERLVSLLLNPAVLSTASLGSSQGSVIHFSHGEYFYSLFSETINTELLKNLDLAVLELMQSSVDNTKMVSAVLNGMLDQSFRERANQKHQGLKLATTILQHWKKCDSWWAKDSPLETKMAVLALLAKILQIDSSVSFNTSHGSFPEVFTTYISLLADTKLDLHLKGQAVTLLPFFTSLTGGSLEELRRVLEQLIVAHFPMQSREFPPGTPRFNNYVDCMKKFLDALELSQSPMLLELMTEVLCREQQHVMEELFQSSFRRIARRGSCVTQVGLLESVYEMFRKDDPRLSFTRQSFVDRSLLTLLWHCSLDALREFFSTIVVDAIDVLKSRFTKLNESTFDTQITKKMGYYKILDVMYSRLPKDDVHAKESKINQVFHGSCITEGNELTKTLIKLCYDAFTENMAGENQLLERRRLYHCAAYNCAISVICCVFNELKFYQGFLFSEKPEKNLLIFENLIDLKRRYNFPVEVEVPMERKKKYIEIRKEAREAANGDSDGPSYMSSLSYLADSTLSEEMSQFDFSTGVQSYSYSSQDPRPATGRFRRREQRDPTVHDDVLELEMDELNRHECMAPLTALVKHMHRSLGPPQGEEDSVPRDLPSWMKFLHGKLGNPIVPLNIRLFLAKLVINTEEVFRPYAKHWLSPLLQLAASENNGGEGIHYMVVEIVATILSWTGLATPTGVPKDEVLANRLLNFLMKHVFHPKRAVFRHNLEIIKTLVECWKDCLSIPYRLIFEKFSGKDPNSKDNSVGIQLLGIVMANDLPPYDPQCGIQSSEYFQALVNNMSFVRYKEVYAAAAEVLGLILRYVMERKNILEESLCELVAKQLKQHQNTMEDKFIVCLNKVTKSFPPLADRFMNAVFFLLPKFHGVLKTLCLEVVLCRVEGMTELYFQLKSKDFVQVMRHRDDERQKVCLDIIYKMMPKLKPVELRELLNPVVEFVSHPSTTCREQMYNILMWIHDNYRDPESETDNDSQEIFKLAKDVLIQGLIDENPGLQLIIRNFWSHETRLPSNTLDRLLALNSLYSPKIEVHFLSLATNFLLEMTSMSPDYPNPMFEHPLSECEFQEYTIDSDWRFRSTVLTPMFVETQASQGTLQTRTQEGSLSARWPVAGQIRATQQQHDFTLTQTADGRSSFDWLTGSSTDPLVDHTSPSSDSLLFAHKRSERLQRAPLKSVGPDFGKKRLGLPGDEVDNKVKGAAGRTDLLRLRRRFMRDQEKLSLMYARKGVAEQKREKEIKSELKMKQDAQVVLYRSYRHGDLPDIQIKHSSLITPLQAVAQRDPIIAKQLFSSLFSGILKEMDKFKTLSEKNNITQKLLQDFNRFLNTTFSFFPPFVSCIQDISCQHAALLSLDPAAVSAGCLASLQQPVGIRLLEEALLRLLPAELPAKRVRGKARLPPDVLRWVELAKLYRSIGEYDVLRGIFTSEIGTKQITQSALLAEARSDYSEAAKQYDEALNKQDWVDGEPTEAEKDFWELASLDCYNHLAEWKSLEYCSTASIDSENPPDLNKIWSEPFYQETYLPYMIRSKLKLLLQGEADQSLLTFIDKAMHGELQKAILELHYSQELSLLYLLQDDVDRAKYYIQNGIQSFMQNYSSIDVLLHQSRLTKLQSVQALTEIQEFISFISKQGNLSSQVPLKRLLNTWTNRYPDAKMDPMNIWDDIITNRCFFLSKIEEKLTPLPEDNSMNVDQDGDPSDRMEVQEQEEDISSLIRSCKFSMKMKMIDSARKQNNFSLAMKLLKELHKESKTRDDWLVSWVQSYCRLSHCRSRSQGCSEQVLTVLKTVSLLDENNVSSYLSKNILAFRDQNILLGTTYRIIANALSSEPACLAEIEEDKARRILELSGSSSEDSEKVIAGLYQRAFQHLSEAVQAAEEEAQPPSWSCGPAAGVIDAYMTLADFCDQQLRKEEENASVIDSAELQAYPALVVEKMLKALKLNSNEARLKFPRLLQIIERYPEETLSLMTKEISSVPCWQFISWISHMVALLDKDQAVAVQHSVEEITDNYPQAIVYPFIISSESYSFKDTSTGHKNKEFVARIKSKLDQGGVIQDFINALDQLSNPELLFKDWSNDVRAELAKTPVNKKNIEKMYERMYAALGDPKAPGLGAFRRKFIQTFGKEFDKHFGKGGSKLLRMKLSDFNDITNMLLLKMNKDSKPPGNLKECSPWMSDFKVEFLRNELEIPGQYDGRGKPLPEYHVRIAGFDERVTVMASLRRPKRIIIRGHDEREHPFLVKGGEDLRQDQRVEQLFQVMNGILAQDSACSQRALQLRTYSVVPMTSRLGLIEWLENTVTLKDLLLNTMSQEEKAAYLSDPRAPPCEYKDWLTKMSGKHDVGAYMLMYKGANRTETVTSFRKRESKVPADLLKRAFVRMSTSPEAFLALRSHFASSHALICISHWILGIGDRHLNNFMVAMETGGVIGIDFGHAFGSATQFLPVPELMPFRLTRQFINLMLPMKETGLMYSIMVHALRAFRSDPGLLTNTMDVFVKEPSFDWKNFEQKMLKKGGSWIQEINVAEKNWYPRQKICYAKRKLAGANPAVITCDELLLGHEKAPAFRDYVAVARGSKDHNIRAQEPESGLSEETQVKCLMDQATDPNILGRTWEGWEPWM
GST–DNA–PKcs ARID1A-binding region (3615–3660 aa), F3640A mutant (P78527, form named): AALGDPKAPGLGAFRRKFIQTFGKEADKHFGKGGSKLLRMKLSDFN

What was measured:
[1] = molecular target: ARID1B, endogenous (human (endogenous in HEK293)) (UniProt Q8NFD5); assay: co-IP; endogenous ARID1A or ARID1B immunoprecipitated with anti-ARID1A or anti-ARID1B from HEK293 nuclear extract; partners by immunoblot
[2] = molecular target: GST–ARID1A–C-terminal region (1634–1913 aa) (UniProt O14497); assay: pull-down; GST–ARID1A mutants or GST–ARID1B–ARM on Glutathione Sepharose beads incubated with HEK293 (methods: 293T) nuclear extract for 4 h at 4°C with RNase A and DNase I; bound proteins by immunoblot; only the target purified
[3] = molecular target: GST–ARID1A–ARM domain (1914–2285 aa) (UniProt O14497); assay: as above
[4] = molecular target: GST–ARID1A–ARID domain (981–1140 aa) (UniProt O14497); assay: as above
[5] = molecular target: GST–DNA–PKcs ARID1A-binding region (3615–3660 aa), F3640A mutant (UniProt P78527); assay: far-Western, overlay or dot blot; GST-fusion proteins separated by SDS–PAGE, transferred to PVDF, renatured through falling guanidine–HCl, incubated with His–ARID1A–ARM overnight at 4°C, probed with anti-His-tag antibody; both purified

Substance	binding [1]	binding [2]	binding [3]	binding [4]	binding [5]
DNA-dependent protein kinase catalytic subunit (DNA-PKcs), endogenous wild type (from UniProt P78527 1-4128)	binds	binds weakly	binds	binds weakly	–
VIRMA (from UniProt Q69YN4 1-1812)	–	–	–	binds	–
His–ARID1A–ARM domain (1914–2285 aa) (from UniProt O14497 1914-2285) (domain or fragment)	–	–	–	–	no binding
